Reference: the supplement of paper PMC11417369
Some of the results follow.

system: PF3D7_0420300 AP2 domain 1 (GST-tagged); assay: gcPBM binding intensity (ln(normalized median fluorescence intensity)); higher = stronger DNA binding
How it was run: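 An Agilent 4 × 180k array of primer-extended double-stranded 36-bp intergenic genomic probes, with negative controls, was incubated for 1 h with GST-tagged P. falciparum DNA-binding domains expressed in E. coli. Alexa488 anti-GST antibody detected bound protein, scanned at 488 nm. Binding intensity is the highest Masliner-normalised natural-log median intensity across replicate spots of either probe orientation.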

Sequence	gcPBM binding intensity (ln)
TATAAATAAAGACACACACACACACCGTATAATTAC [CACACA_site7829]	10.2
TAATAAAACATATATACACACATTAGATATACATAT [CACACA_site6897]	9.81
TTCCCAACATGATATTGTACATTTAATTATAATTAA [XGTACX_site7029]	9.33
ATATTATTAATTTGTTGTACAGTTCTTTATTTATAG [XGTACX_site7932]	9.52
TATATGTTTGAATATACACACAACATATATATATAT [CACACA_site4066]	9.38
TATATTAAAAAAAAATGTACACATATATATATATAT [XGTACX_site4524]	9.07
CCAGGAAAAATTTATTGTACATATATTTTTATGCTC [XGTACX_site7154]	8.96
TATTTTTGGTTATGTGTGCACTATGAACAACAAAAT	9.31
ATTTTTTTATAAAATTTTTATATATTATATAAATAT [GTGCAC_negctrl_site163]	9.01
TAAAAATAGTATACAACACACGAGGGAAAATAAAGT [CACACA_site3837]	10.2
AAATGTATAATATTTTCACACACAAGAAAAAAGAAA [CACACA_site9195]	9.7
GCCAATAAAGATGTGGTGCATTATATATATATATAT	9.26
TATCGAGCACGGCGTGTGGAGTTACAAAGAGGAGAA [CACACA_negctrl_site40]	9.32
AGAAATGAAATATACACACATACATATATACATATA [CACACA_site4033]	9.73
ACCCTCATATTATAGACACACACAAAAAAAATAAAA [CACACA_site7941]	9.73
TAAATACACCCTAGACGTACATAAAAATTTAGTATG [XGTACX_site2512]	9.28
ATTAATAATGAGTTATGTACATACATATTTTAAGAT [XGTACX_site7543]	9.14
CTTCTTATTTTCTAATGTACGTACAAATCATTTATA [XGTACX_site2176]	9.31
ATATTTATATATATGTGTACATATAGAAACATAAAA [XGTACX_site4355]	9.2
TGTCCTTATGGGCACACACACATATAAGAAATTTAA [CACACA_site3187]	9.56
AAAAACAAACTGTGCATGCACCAAAAAAAAAAAAAA	9.35
TTTTTTTTTTTAATTTGTACGAATCTTTTTATTTTA [XGTACX_site4516]	9.1
CTTTCATATGTTTTAACACACACGCATATATTATAT [CACACA_site8615]	9.74

Sequence	gcPBM binding intensity (ln)
TTTTTTTTTTTGATTTGTACACAAAAAAAATATATG [XGTACX_site4547]	8.95
TTTTTTTTTTTTTTTTGTACATATTTTTAAACTATA [XGTACX_site2897]	8.72
TTTTTTTTTTGATGTTGTACATATATATTATATATA [XGTACX_site6377]	9.36
AGATATATGGACGACTCACACATTTAAATTCATTCA [CACACA_site6047]	9.28
ATAAACAATTAACAAACATGCAAATTTTAAATGTGT [TGCATGCA_site919]	9.51
ATTTATTTGTTTGTTTTTTTTACGATTTTTATTTTT [CACACA_negctrl_site1138]	9.76
CGTATTTATATAATTACACACCATATTTTAATTATT [CACACA_site5960]	9.3
TAATTTTTTTTTCTTGTACACACTATTTTATAATTT [CACACA_site4078]	9.59
ATCTATGATATATACACACACATGTATAAATAAATA [CACACA_site7012]	9.57
AATAGTATTCACAAAGTTTTATATAATAAATATAAA [GTGCAC_negctrl_site154]	8.92
TTTGAAATAAGCAAATGTACATTATTATTAAATATA [XGTACX_site6158]	8.97
TTGCCCATTTAATTAACACACAAATGTTTATATTCT [CACACA_site6488]	9.57
TGTATGATAACTATAGTGCATTTGGTAATTTTTCCA	9.25
TTCACATACAGAAACACACACATATATATAAATTAA [CACACA_site3705]	9.78
TATTTCATGATACAATGTACATGTATATATGATACC [XGTACX_site5057]	9.18
AATAATATATATTACACACGCATCGTTCATTTATTT [CACACA_site2391]	9.74
CTAGCAAATACATACACACACACACCGATACAGATA [CACACA_site5853]	10.2
ATATATACATATATTACACACTTCTTATTCTAAGAA [CACACA_site3022]	9.22
TATAATATAAGGATCACACACAAACACCCATATATA [CACACA_site4468]	9.76
TCCATAAAAATGGATACACACACATAATATATATAT [CACACA_site9207]	9.82
CATACATACATACATACACACATACCTATATTTATA [CACACA_site6769]	9.79
TATATAAAAAAACAAAGTACATGTTCTTAATCATTT [XGTACX_site8446]	9.15
AAATGAACAAGTGGCACACACACATCATAACTAATT [CACACA_site5730]	9.92

Sequence	gcPBM binding intensity (ln)
CACGCGAACATACATACACACACATATATATATATG [CACACA_site7951]	9.85
CAAAATATATATACCACACACACATACCTCTATTTG [CACACA_site1853]	9.93
ATATATTTTTTCTTAACACACATATATAAAATAAAA [CACACA_site3500]	9.24
TATATATATATATACACACACACACCGATATATATA [CACACA_site8813]	10.2
AAATATAATATATGCACACATACATACAGATATATA [CACACA_site4235]	9.5
ATAAATATAGGACACACACACATATTATATATATAT [CACACA_site5658]	10.1
ATAATATAAATATGCACACAAATTATTACCCAAAAA [CACACA_site2524]	9.55
GTTATATTCCTACAGAGTACATAAAAATGCACATCA [XGTACX_site1948]	9.2
TATTCGAACAAAAATACATGCACATATGCATAATAA [TGCATGCA_site171]	9.15
TTTTCCAGTAAATATTTTTTTATAATATTTATATAT [CACACA_negctrl_site387]	9.11
AAATAAAATAAAATACGTACCTATTGTGCGTATTAA [XGTACX_site2912]	9.06
TAATAAATGTTATTAGTGCATAATAGATAATATATT	9.24
AATAATTTCCAAAAATGTACATATATTTACATATAT [XGTACX_site1790]	9.4
ATTTTAACTCCCCTTAATCTATTGTATATATATATA [CACACA_negctrl_site208]	9.39
AGCCACTTAAAATACACACACACCAAAAAAAAAAAA [CACACA_site5497]	9.81
TATTTTATTTATTGAAGTACATTATACAAAAATAAA [XGTACX_site4824]	8.8
GTTTTCTAGTGGGGGTGTACATATTTATATTTAATA [XGTACX_site8378]	10.2
ATATATATATAATAAGTGCAAAAAAAAGAAAAAAAT	9.74
AGCAAAAAAAAAAAAAAAAAAAAAATAATAAAAAAT [TGCATGCA_negctrl_site202]	8.83
CATATATTAATATGTACACACATTAATAAAAAAAAA [CACACA_site7504]	9.4
TTTTTTTTTTTTGAGGTGCATATATCAGATCAATAT	8.94
AGTATTCATAAAAATACACACATGGAAAAATAAAAT [CACACA_site1454]	9.72
TAAGAAATTGAGCGCACACATACATCTGTGGGATGG [CACACA_site1548]	9.46

Sequence	gcPBM binding intensity (ln)
ATTGTGGATATTCTTACACACAAATTTATTTATAAA [CACACA_site7267]	9.28
TTTTTTTCTTCTTTTCTCTTAAAAATATTGAATATT [CACACA_negctrl_site1762]	9.12
ATGTAAATATTTTGTATGCACTTTGATGCATCTTTT	9.34
AAAAAAAAAAAAAAAAAAAAAAAAAAAAAAAAAAAG [CACACA_negctrl_site292]	9.3
TCAAGAGTTATATAAACACACATACATACAGACATA [CACACA_site6998]	9.6
GGAAAAAGAAATTAATGTACATGTGGATGTATGAGG [XGTACX_site5468]	9.36
AAAATATTTAAGCATTGTACATATTTTTACAAATAC [XGTACX_site5349]	9.1
AAAATTCATCCAACAAGTACATAAATATAATATTAT [XGTACX_site4596]	9.35
AAGAACAGATAAAATCGTACGTGAAACATGAACTTG [XGTACX_site7793]	9.42
TCTGAAATTTTAGGGGTGCCTGGGACTAAAGAAACG [GTGCAC_site9785]	9.19
TAGAAACCATAAAAATGTACTTAAAAATAGACAATT [XGTACX_site5007]	9.37
ATAAATTCATTATATTGTACAAACAAATGAAAAAAA [XGTACX_site8304]	9.09
TTTAATTCCCATATATGTACACAATTTCTTCTATAA [XGTACX_site1465]	9.25
AGACTTTTTATGAGCACACACATATATTATGGAGTA [CACACA_site1040]	9.41
ATACATAAATATTATTGTACATATATAATATTAATA [XGTACX_site3514]	9.08
ATTTTTTTTTTTTTATGTACATATTAAAAAAAATAT [XGTACX_site1829]	9.03
GGTATTACTTTTAGCTGTACTTATTTAAAAGTCAAA [XGTACX_site530]	9.13
ATTTTTACTTTTTATGCATGCTATATTTTCAACCAT [TGCATGCA_site871]	9.5
ATTAAGGAAAAATTATGTACACAAAAACATATAACA [XGTACX_site2901]	9.45
TATACATGTTCAATTTGTACATATATAAATATATAT [XGTACX_site3554]	9.12
CTACACAAGCATTAAACACACAAAAGGGATACTTTG [CACACA_site1083]	9.68
